# Assay results taken from PubChem BioAssay AID504444 (National Center for Advancing Translational Sciences (NCATS), 2011).
# The campaign covered roughly 360,000 compounds. About 7,500 (2.1%) were called active. Inconclusive results (about 20%) are left out. Calls come from the whole dose curve; as a rule, active = well fitted inhibition curve with a large enough effect; inconclusive = small, poorly fitted or top-dose-only effect, or effect the other way; inactive = flat fitted curve, though single readings scatter. This is a selection; strong and weak results do not stand in their true shares.
# Experiment: Nrf2 qHTS screen for inhibitors; note: nearly all actives have a fitted effect of over 60% in size
# Conditions: A549 ARE-Fluc reporter, luciferase luminescence, 18-24 h; series mostly up to 46 µM; activity change, negative = inhibition: at the top concentration
# Method in brief: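 Reporter: ARE-Fluc in A549. Exposure: 18-24 h, 37 °C, 5% CO2, 5% FBS OPTI-MEM. Readouts: fluorescent cytotoxicity (CellTiter-Fluor), then luminescent Nrf2 signal after BugLite.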
# % is set by controls: 0 for no effect and ±100 for the full control effect; potency is the fitted concentration of half-maximal effect.
Compound,"activity change, negative = inhibition",Potency
O=C(/C=C/c1ccc(-c2ccccc2)o1)c1ccccc1,inactive: 10.8%,–
Cc1c(NS(=O)(=O)c2cccc(C(=O)O)c2)c(=O)n(-c2ccccc2)n1C,inactive: 11.7%,–
CCN1C(=O)[C@@H]2[C@@H](c3ccc(-c4ccc(OC)cc4)cc3)N3CCCC[C@@]3(C(=O)OC)[C@@H]2C1=O,inactive: -16.4%,–
O=C1N[C@@H](Cc2ccccc2)C(=O)N2[C@H]1C[C@]1(Br)c3ccccc3N(S(=O)(=O)c3ccc(F)cc3)[C@H]21,inactive: 4.97%,–
COC(=O)c1cc(S(=O)(=O)NCC2CCN(Cc3cc(C)ccc3C)CC2)c[nH]1,inactive: -9.62%,–
C#CCNC(=O)C1=C[C@@H](C2CCCCC2)[C@H](CCCO)[C@@H](OCC)O1,inactive: -15.2%,–
CCCCN(C)C(=O)C(Cc1ccccc1)NS(=O)(=O)c1ccc2c(c1)c(=O)n(C)c(=O)n2C (stereo not drawn),inactive: 3.6%,–
O=C1N[C@H](Cc2ccccc2)COC(=O)[C@H](Cc2ccc(F)cc2)C/C=C\C[C@H]1CC(=O)N(CCO)Cc1ccccc1,inactive: -8.45%,–
COC(=O)c1cc(NC(=O)Cn2nc(C)n3cccc3c2=O)cc(C(=O)OC)c1,inactive: 12.8%,–
COc1ccccc1N1CCN(S(=O)(=O)c2cc3[nH]c(=O)c(=O)[nH]c3cc2C)CC1,inactive: 3.2%,–
CCn1c(COc2c(C)cccc2C)nnc1SCC(=O)N1CCN(c2ccccc2)CC1,–,active: 18.4 µM
CC(C)CC(=O)Nc1ccc(C(=O)NNC(=S)NC(=O)C2CCCCC2)cc1,–,active: 8.2 µM
COc1cc(/C=N/NC(=O)c2ccncc2)ccc1O,inactive: -0.595%,–
COC(C[C@@H]1O[C@@H]1[C@@H](O)[C@@H](C)OCc1ccccc1)OC,inactive: -4.43%,–
CC(C)(C)S(=O)N1Cc2cc(=O)n(Cc3ccccc3)cc2[C@@H]1CCO (stereo partly drawn),inactive: 22.5%,–
Oc1ccc(C[C@@H]2CNCCN2CCc2cccc(F)c2)cc1,inactive: -11.1%,–
COc1ccc(C2=CC(=O)C[C@H](c3ccc(OC)cc3)C2)cc1,inactive: 7.05%,–
COc1cc(OC)cc(C(=O)Nc2ccc3c(c2)OCCO3)c1,inactive: 12%,–
C=CC[C@@H](CC(=O)N[C@@H](CO)Cc1ccccc1)C(=O)N[C@H](C)COC(=O)[C@@H](CC=C)Cc1ccc(F)cc1,inactive: 6.96%,–
CCc1ccc(NC(=O)c2c(C(=O)Nc3ccccc3)sc3nc(C)cc(=O)n23)cc1,inactive: 4%,–
CC(=O)N1c2ccc(S(=O)(=O)N3CCC(C(=O)Nc4ccccn4)CC3)cc2CC1C (stereo not drawn),–,active: 18.4 µM
COc1cc(NS(=O)(=O)c2ccc(C)cc2)c2ncccc2c1,inactive: -46.7%,–

Compound,"activity change, negative = inhibition",Potency
CCOC(=O)c1nc(Nc2ccc(C(=O)OC)cc2)c2ccccc2n1,inactive: -0.806%,–
COCCNC(=O)c1cccc(Nc2nc(-c3ccccc3)c3cc(Cl)ccc3n2)c1,–,active: 14.6 µM
COc1cc(NC(=O)NCC2CCN(Cc3ccc(C)cc3)CC2)cc(OC)c1OC,inactive: 1.77%,–
C=CC[C@@H](CC(=O)N[C@@H](CO)Cc1ccccc1)C(=O)N[C@H](COC(=O)[C@@H](CC=C)Cc1ccc(F)cc1)Cc1c[nH]c2ccccc12,inactive: 8.98%,–
COc1cccc(NC(=O)c2sc3nc4n(c(=O)c3c2C)CCC4)c1,inactive: 15.2%,–
Cc1cccc(NC(=O)Nc2ccc(Br)cc2)n1,inactive: 6.74%,–
CCc1cccc(C)c1NC(=O)C1CCN(c2nn3c(=O)cc(C)nc3s2)CC1,inactive: 2.73%,–
Nc1nc(Cl)cc(N2CCC(c3cc(-c4ccc(Cl)cc4Cl)n[nH]3)CC2)n1,–,active: 10.3 µM
COc1cc2c(cc1OC)C(C)N(C(=O)C(NC(=O)c1ccccc1)C(C)C)CC2 (stereo not drawn),inactive: -25.2%,–
O=C(CSc1ncn[nH]1)N1N=C2/C(=C\c3ccco3)CCCC2C1c1ccco1 (stereo not drawn),inactive: -18.4%,–
CC(C)(C)OC(=O)C[C@H]1C/C=C\C[C@@H](CC(=O)N(CCO)Cc2ccccc2)C(=O)NC[C@H](c2ccccc2)OC1=O,inactive: 11.7%,–
Cc1nn(CCC(=O)NCc2ccc(N(C)C)cc2)c(=O)c2nn(-c3ccccc3)c(C)c12,inactive: 11.5%,–
C[C@H]1NC(=O)[C@@]2(C)[C@H](c3ccccc3)[C@H]3COc4ccccc4[C@@H]3N2C1=O,inactive: 4.98%,–
COc1cc(NC(=O)c2cc3ccccc3cc2OC)ccc1NC(=O)c1cccs1,–,active: 5.17 µM
Cc1cccc(NS(=O)(=O)c2nnc(NC(=O)C3CCCCC3)s2)c1,inactive: -22.1%,–
COc1cc(-c2nnn(CC(=O)NCc3ccccc3)n2)cc(OC)c1OC,inactive: -5.67%,–
CCN(C(=O)C1CCN(c2nc(-c3ccc(OC)cc3)no2)CC1)c1ccc(OC)cc1,–,active: 13 µM
N=C(N)SCc1nc2ccccc2c(=O)n1-c1ccccc1,inactive: 12.8%,–
N#CC(c1ccc(F)cc1)c1ccc(C(=O)c2ccc(F)cc2)cc1 (stereo not drawn),–,active: 14.6 µM
Cc1c(N2C(=O)/C(=C/c3cccc4ccccc34)SC2=S)c(=O)n(-c2ccccc2)n1C,inactive: -0.176%,–
CC1=C(C(=O)OCc2ccccc2)C(c2cccnc2)c2c(n(C)c(=O)n(C)c2=O)N1 (stereo not drawn),inactive: -11.1%,–
C=CC[C@@H](CC(=O)N[C@@H](CO)Cc1ccccc1)C(=O)N[C@@H](COC(=O)[C@@H](CC=C)Cc1ccc(F)cc1)Cc1c[nH]c2ccccc12,inactive: 0.809%,–

Compound,"activity change, negative = inhibition",Potency
COc1ccccc1CNC(=O)C(=O)NCC(c1cccnc1)N1CCN(c2ccc(F)cc2)CC1 (stereo not drawn),–,active: 20.6 µM
Cc1ccc(NC(=O)CNc2cccc(Br)c2)cc1S(=O)(=O)N1CCOCC1,–,active: 20.6 µM
CCC1CSC(Nc2ccc(C(=O)/C=C/c3cccc(C)c3)cc2)=N1 (stereo not drawn),–,active: 23.1 µM
C=C1CCN(C(C)C(=O)OCc2ccc(C)cc2)S(=O)(=O)c2ccccc21 (stereo not drawn),inactive: 10.9%,–
O=C(C[C@H]1C/C=C\CC[C@@H](Cc2ccc(F)cc2)C(=O)OC[C@H]2CCCN2C1=O)N[C@@H](CO)Cc1ccccc1,inactive: -18%,–
O=C(Cn1c(COc2ccccc2)nc2ccccc21)Nc1cc(Cl)ccc1Cl,–,active: 18.4 µM
Cc1ccc(C(=O)NCCSc2ccc(Cl)cc2)cc1S(=O)(=O)Nc1ccccc1,–,active: 14.6 µM
Cc1cc(C)c2nc(NNC(=O)c3ccc(S(=O)(=O)N4CCCC(C)C4)cc3)sc2c1 (stereo not drawn),–,active: 4.11 µM
CN(C)c1ccc(CNS(=O)(=O)c2csc(C(N)=O)c2)cc1,inactive: -15.2%,–
Nc1ccc(N2CCN(C(=O)c3ccco3)CC2)cc1,inactive: 0.651%,–
CN(c1ccc(Cl)cc1)S(=O)(=O)c1nnc(NC(=O)c2ccco2)s1,inactive: 1.69%,–
CCOc1ccccc1NC(=O)CCS(=O)(=O)c1ccc(OC)cc1,inactive: -3.78%,–
CCCn1c2ccc(C)cc2c2nnc(SCCN3CCCCC3)nc21,inactive: 11.2%,–
CC(C)N(C(=O)CSc1nc(Cc2ccccc2)nc2ccccc12)C(C)C,–,active: 18.4 µM
Cc1cc2c(cc1S(=O)(=O)CCC(=O)N(C)Cc1ccccc1)OCC(=O)N2,inactive: -5.77%,–
COc1ccc(C2=NS(=O)(=O)N(C)C(C(=O)NC(C)c3ccccc3)=C2)cc1OC (stereo not drawn),inactive: 12.5%,–
O=C1CCCC2=C1C1(CCCCC1)N=C(Nc1nc3ccccc3o1)N2,inactive: -2.73%,–
COc1cccc(CNC(=O)CCCn2nc(C)c3c(C)n(-c4ccc(C)cc4)nc3c2=O)c1OC,inactive: 0.742%,–
Cc1ccc(-n2c(-c3ccco3)nc3c(cnn3-c3ccccc3C)c2=O)cc1,inactive: -24.8%,–
COc1ccc(N2CCN(C(=O)c3ccc4c(Cl)c5c(nc4c3)CCCC5)CC2)cc1,inactive: -25.1%,–
Cc1ccc(-c2csc(NC(=O)c3ccc4c(=O)n5c(nc4c3)CCCCC5)n2)cc1,–,active: 5.17 µM
COC(=O)C1=C(C(=O)OC)[C@]2([C@@H]3CCCCN[C@@H](Cc4ccccc4)C(=O)N3Cc3ccccc3)C=C[C@H]1O2,inactive: -22.6%,–

Compound,"activity change, negative = inhibition",Potency
C=C1C(=O)O[C@@]23[C@H]1CC[C@@H](C)[C@@H]2CC[C@@]1(C)O[C@@H]31,–,active: 14.6 µM
CC(C)c1ccc(NC(=O)CN2C(=O)COc3ccc(S(=O)(=O)N4CCOCC4)cc32)cc1,inactive: 0.309%,–
COc1ccc(NC(=O)C2CCCN(S(=O)(=O)c3c(C)[nH]c(=O)[nH]c3=O)C2)cc1Cl (stereo not drawn),inactive: 2.25%,–
COc1ccc(C(=O)Nc2nnc(S(=O)(=O)N3CCC(C)CC3)s2)cc1OC,inactive: -9.91%,–
O=C(Nc1nnc(S(=O)(=O)N2CCCC2)s1)c1ccccc1F,inactive: 3.71%,–
COc1ccc(-c2cc(C(=O)N3CCN(c4ccc(F)cc4)CC3)no2)cc1OC,inactive: -26.4%,–
COc1cccc(CNC(=O)CCCn2nc(C)n3c(cc4sccc43)c2=O)c1,inactive: -14.6%,–
Cc1ccc(CNC(=O)c2cn(C)c3ccc(S(=O)(=O)N4CCOCC4)cc3c2=O)cc1,inactive: 16.6%,–
COc1cc2c(cc1OC)CN(C(=O)CCCOc1ccc(Cl)cc1Cl)CC2,–,active: 18.4 µM
O=C(CCCN1C(=O)/C(=C\c2cccs2)SC1=S)Nc1ccc(O)cc1,inactive: -12.6%,–
C[C@]12C=CC(=O)C=C1CC[C@@H]1C2C(O)C[C@@]2(C)C1CC[C@]2(O)C(=O)COC(=O)CCC(=O)NC(CC(=O)O)C(=O)O (stereo partly drawn),–,active: 0.103 µM
CCOc1ccc(CNC(=O)C2CCN(c3nn4c(=O)cc(C)nc4s3)CC2)cc1,inactive: 2.12%,–
COc1ccc(CNC(=O)C2CCCN(S(=O)(=O)c3cccc4nsnc34)C2)cc1 (stereo not drawn),inactive: -24.5%,–
CCOc1ccc(-c2nonc2NC(=O)c2ccco2)cc1,inactive: 0.982%,–
CC(=O)c1ccc(N2CCN(C(=O)CCCc3nc4ccccc4s3)CC2)cc1,–,active: 14.6 µM
C=C1CCN(C(C)C(=O)O)S(=O)(=O)c2ccccc21 (stereo not drawn),inactive: 0.882%,–
COc1ccc(C2CC(c3cccs3)=NN2C(=O)CSC2=NCCS2)cc1 (stereo not drawn),–,active: 18.4 µM
CCCCN(C(=O)CCn1c(=O)oc2ccccc21)c1ccccc1,inactive: -18%,–
CCCSc1ccc([C@@H]2[C@@H]3C(=O)N(CC)C(=O)[C@@H]3[C@]3(C(=O)OC)CCCCN23)cc1,inactive: -24.4%,–
CC(C)[C@H](NC(=O)c1ccccc1F)C(=O)Nc1ccc2c(c1)OCO2,inactive: -14.8%,–
C[C@H]1CCC[C@]2(O[C@H](CCO)C[C@@H](O)[C@@H]2O)O1,inactive: -12.8%,–
COc1ccc(CN2CCN(S(=O)(=O)c3ccccc3)CC2)c(OC)c1,inactive: 15.2%,–
